{"source": "paper PMC8931350", "about": "(Proceedings of the National Academy of Sciences of the …, 2022)", "proteins": {"B1": {"name": "PYD-deleted recombinant human NLRP3 (residues 130 to 1,036) (domain or fragment)", "chain": "not shown"}}, "molecular_target": "the molecule itself", "assay": "cryo-EM structure"}
{"protein": "B1", "values": [{"measurement": "stoichiometry N", "result": 6}]}
